Laboratory results: the supplement of paper PMC10441789
The other results are listed elsewhere or left out. Antibody binding of pooled human sera (four to six donors per pool; dilution not stated) to peptides of the Trypanosoma cruzi antigen TSSA on microarrays. Quantile-normalised fluorescence in arbitrary units, mean of duplicate arrays; higher = more binding. No active / inactive call. The uninfected pools are read here as the healthy donors of the same country. The strongest signals lie near the top of the scale (about 60,000).

How the values were obtained:
Experiment in all cases: antibody binding signal (normalised fluorescence) (arbitrary fluorescence units); higher = stronger serum antibody binding to peptide
[1] = system: pooled sera of chronic Chagas disease patients, Argentina
Description: (§1)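 Microarray of 15-residue peptides over residues 30-55 of Trypanosoma cruzi TSSAII, each with 1 to 10 substitutions at naturally variable positions, probed with one serum pool per country.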

[2] = system: pooled sera of chronic Chagas disease patients, Bolivia
Description: as §1

[3] = system: pooled sera of chronic Chagas disease patients, Brazil
Description: as §1

[4] = system: pooled sera of chronic Chagas disease patients, Colombia
Description: as §1

[5] = system: pooled sera of chronic Chagas disease patients, Mexico
Description: as §1

[6] = system: pooled sera of chronic Chagas disease patients, USA
Description: as §1

[7] = system: pooled sera of uninfected people, Argentina
Description: as §1

[8] = system: pooled sera of uninfected people, Bolivia
Description: as §1

[9] = system: pooled sera of uninfected people, Brazil
Description: as §1

[10] = system: pooled sera of uninfected people, Mexico
Description: as §1

[11] = system: pooled sera of uninfected people, USA
Description: as §1

Sequence	antibody binding signal [1]	antibody binding signal [2]	antibody binding signal [3]	antibody binding signal [4]	antibody binding signal [5]	antibody binding signal [6]	antibody binding signal [7]	antibody binding signal [8]	antibody binding signal [9]	antibody binding signal [10]	antibody binding signal [11]
SGKENKPAAGETPSQ	2470	4010	24800	3440	4570	15500	9210	4970	187	719	205
SSTPPSGTEKKPATG	42100	9580	45200	745	34500	9010	1390	1300	395	244	732
KENKPAAGGTPSPSG	201	230	351	986	360	309	208	282	343	110	168
PPSGKEKKAAAGETP	1350	623	2550	1950	3930	3460	399	564	83.5	96.8	133
EKKPATGEAPSQSGA	46800	49200	50400	369	344	47800	990	1050	318	332	758
KDNKPATGETPSQSG	36900	21700	35800	251	307	27400	474	601	401	2150	229
SGTENKPAAGGAPSP	45200	18700	34900	1520	1310	8260	569	1500	355	322	165
GKEKKPAAGGAPSPS	3690	185	235	2390	1180	1230	97.6	149	121	87.3	253
SGTENKAAAGGAPSQ	40000	8640	17400	3770	1280	4410	468	333	205	168	213
NKAAAGETPSQSGAS	271	3410	17600	211	192	352	456	944	358	682	812
STPPSGTDNKAAAGG	36000	48900	51100	1530	13600	33700	1220	706	1880	453	473
GTDKKAATGETPSPP	1100	1570	15400	2110	513	11900	496	302	236	320	823
DNKAATGGTPSPPGA	406	1010	403	278	419	259	197	325	501	212	153
STPPSGTENKPAAGG	49800	50800	52800	411	6090	50800	8780	1570	865	1160	1160
GKEKKAAAGETPSPS	3600	744	438	3210	2370	2850	119	94.1	95.3	73.7	319
SGKEKKPATGGTPSP	5820	444	5160	2770	4600	5190	225	188	328	81	206
SGKENKTATGGAPSQ	4180	893	19000	6280	4550	20100	5800	1420	166	343	170
